This is one part of the list. Rule as the data show it: active = 3.2 or more and inactive = the rest. Only a few entries rise above the background.
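Also: displayed peptides selected on beads carrying the immobilized SH2 domain, with library peptides lacking any tyrosine serving as negative controls.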

For the first test, the target named is SHP2 C-SH2 domain E139D. The experiment in a line: enrichment score (SH2-bound / input frequency) (ratio); bacterial display of known human phosphotyrosine sites (pTyr-Var adds point mutants) read by sequencing; higher = stronger binding; tyrosines were phosphorylated by kinases first. The note with it: peptide library: pTyr-Var.
For the molecule LATINYPFEKG [NDUFS8_Y84_P79L], the enrichment score was inactive: 1.16.

For the molecule NKVQFYIPDMN [NCR1_Y84_K82Q], the enrichment score was inactive: 1.49.

RSFPSYYTSHV [NEFL_Y442]: the enrichment score is inactive: 1.15.

As to ILGRTHYVNHE [NEDD4_Y627_Y627H], the enrichment score is inactive: 1.62.

Regarding QAFSWYQHQRA [NDST1_Y714_R709Q_YF], the enrichment score is inactive: 0.751.

As to LTSKPYAFTAQ [NDUFS1_Y236_R241Q], the enrichment score was inactive: 0.935.

Regarding SGETKYNPTEA [NBEAL2_Y2748_E2747K], the enrichment score is inactive: 0.541.

For the molecule ESVNTYLQTSP [NAT1_Y208_M205V], the enrichment score was inactive: 0.863.

On to SEKVVYQRFTE [NCF1_Y41_R42Q], for which the enrichment score was inactive: 0.64.

Regarding LTSKPYAFTAR [NDUFS1_Y236], the enrichment score was inactive: 0.824.

NKVKFYIPDMN [NCR1_Y84]: the enrichment score is inactive: 1.6.

Take PADQAYSWFQH [NDST1_Y711_R709Q_YF]: the enrichment score was inactive: 0.903.

Take FQKDVYDIPPS [NEDD9_Y177_YF]: the enrichment score is inactive: 0.702.

Regarding ALDRPYTSKHS [NANS_Y71_E68D], the enrichment score was inactive: 0.621.

As for ESMNTYLQTSP [NAT1_Y208], the enrichment score is inactive: 0.908.

For the molecule QCTSAYLLQPE [NANS_Y188_P189L], the enrichment score was inactive: 0.974.

Take GGCQEYTGAPF [NAXD_Y85_YF]: the enrichment score was inactive: 0.749.

As to ILGRTYYVNHE [NEDD4_Y627], the enrichment score is inactive: 1.51.

EMFNPCYGLFE [NEDD4L_Y679_Y679C]: the enrichment score is inactive: 1.19.

The next test has as its target SHP2 C-SH2 domain wild-type. Described as above. The conditions noted are these: peptide library: pTyr-Var.
LATINYPFEKG [NDUFS8_Y84_P79L]: the enrichment score is inactive: 1.02.

For NKVQFYIPDMN [NCR1_Y84_K82Q], the enrichment score was inactive: 1.07.

In the case of RSFPSYYTSHV [NEFL_Y442], the enrichment score was inactive: 1.02.

For the molecule ILGRTHYVNHE [NEDD4_Y627_Y627H], the enrichment score was inactive: 2.14.

As for QAFSWYQHQRA [NDST1_Y714_R709Q_YF], the enrichment score is inactive: 0.821.

Regarding LTSKPYAFTAQ [NDUFS1_Y236_R241Q], the enrichment score was inactive: 0.842.

Consider SGETKYNPTEA [NBEAL2_Y2748_E2747K], for which the enrichment score was inactive: 0.452.

Take ESVNTYLQTSP [NAT1_Y208_M205V]: the enrichment score was inactive: 0.666.

SEKVVYQRFTE [NCF1_Y41_R42Q]: the enrichment score was inactive: 1.01.

With LTSKPYAFTAR [NDUFS1_Y236], the enrichment score is inactive: 0.845.

Turning to NKVKFYIPDMN [NCR1_Y84], the enrichment score was inactive: 1.39.

Regarding PADQAYSWFQH [NDST1_Y711_R709Q_YF], the enrichment score is inactive: 0.625.

In the case of FQKDVYDIPPS [NEDD9_Y177_YF], the enrichment score is inactive: 0.493.

Consider ALDRPYTSKHS [NANS_Y71_E68D], for which the enrichment score is inactive: 0.529.

ESMNTYLQTSP [NAT1_Y208]: the enrichment score was inactive: 0.897.

With QCTSAYLLQPE [NANS_Y188_P189L], the enrichment score was inactive: 0.695.

Consider GGCQEYTGAPF [NAXD_Y85_YF], for which the enrichment score was inactive: 0.649.

Regarding ILGRTYYVNHE [NEDD4_Y627], the enrichment score is inactive: 1.85.

With EMFNPCYGLFE [NEDD4L_Y679_Y679C], the enrichment score is inactive: 1.04.

Another test deals with SHP2 N-SH2 domain L43F. The test is described as above. The note with it: peptide library: pTyr-Var.
As for LATINYPFEKG [NDUFS8_Y84_P79L], the enrichment score was inactive: 1.08.

With NKVQFYIPDMN [NCR1_Y84_K82Q], the enrichment score was inactive: 1.43.

Turning to RSFPSYYTSHV [NEFL_Y442], the enrichment score is inactive: 0.688.

Consider ILGRTHYVNHE [NEDD4_Y627_Y627H], for which the enrichment score is inactive: 1.64.

Turning to QAFSWYQHQRA [NDST1_Y714_R709Q_YF], the enrichment score was inactive: 0.702.

Consider LTSKPYAFTAQ [NDUFS1_Y236_R241Q], for which the enrichment score is inactive: 0.69.

SGETKYNPTEA [NBEAL2_Y2748_E2747K]: the enrichment score was inactive: 0.478.

In the case of ESVNTYLQTSP [NAT1_Y208_M205V], the enrichment score is inactive: 0.905.

As for SEKVVYQRFTE [NCF1_Y41_R42Q], the enrichment score is inactive: 0.598.

Regarding LTSKPYAFTAR [NDUFS1_Y236], the enrichment score is inactive: 0.795.

As to NKVKFYIPDMN [NCR1_Y84], the enrichment score is inactive: 1.41.

Regarding PADQAYSWFQH [NDST1_Y711_R709Q_YF], the enrichment score is inactive: 0.737.

Take FQKDVYDIPPS [NEDD9_Y177_YF]: the enrichment score was inactive: 0.534.

Consider ALDRPYTSKHS [NANS_Y71_E68D], for which the enrichment score is inactive: 0.578.

On to ESMNTYLQTSP [NAT1_Y208], for which the enrichment score was inactive: 0.918.

Turning to QCTSAYLLQPE [NANS_Y188_P189L], the enrichment score was inactive: 0.679.

On to GGCQEYTGAPF [NAXD_Y85_YF], for which the enrichment score is inactive: 0.675.

For the molecule ILGRTYYVNHE [NEDD4_Y627], the enrichment score was inactive: 1.69.

For the molecule EMFNPCYGLFE [NEDD4L_Y679_Y679C], the enrichment score was inactive: 1.18.

In the next test the target is SHP2 N-SH2 domain T42A. Described as above. The conditions noted are these: peptide library: pTyr-Var.
For LATINYPFEKG [NDUFS8_Y84_P79L], the enrichment score was inactive: 0.81.

Turning to NKVQFYIPDMN [NCR1_Y84_K82Q], the enrichment score was inactive: 1.23.

As for RSFPSYYTSHV [NEFL_Y442], the enrichment score is inactive: 0.949.

As to ILGRTHYVNHE [NEDD4_Y627_Y627H], the enrichment score was inactive: 3.05.

QAFSWYQHQRA [NDST1_Y714_R709Q_YF]: the enrichment score is inactive: 0.794.

In the case of LTSKPYAFTAQ [NDUFS1_Y236_R241Q], the enrichment score is inactive: 0.916.

With SGETKYNPTEA [NBEAL2_Y2748_E2747K], the enrichment score was inactive: 0.396.

Turning to ESVNTYLQTSP [NAT1_Y208_M205V], the enrichment score is inactive: 0.543.

As to SEKVVYQRFTE [NCF1_Y41_R42Q], the enrichment score was inactive: 0.802.

Consider LTSKPYAFTAR [NDUFS1_Y236], for which the enrichment score is inactive: 0.8.

NKVKFYIPDMN [NCR1_Y84]: the enrichment score is inactive: 1.47.

PADQAYSWFQH [NDST1_Y711_R709Q_YF]: the enrichment score is inactive: 0.519.

For FQKDVYDIPPS [NEDD9_Y177_YF], the enrichment score is inactive: 0.518.

For the molecule ALDRPYTSKHS [NANS_Y71_E68D], the enrichment score was inactive: 0.577.

As to ESMNTYLQTSP [NAT1_Y208], the enrichment score was inactive: 0.775.

As for QCTSAYLLQPE [NANS_Y188_P189L], the enrichment score was inactive: 0.602.

Take GGCQEYTGAPF [NAXD_Y85_YF]: the enrichment score was inactive: 0.566.

For ILGRTYYVNHE [NEDD4_Y627], the enrichment score is inactive: 2.54.

Consider EMFNPCYGLFE [NEDD4L_Y679_Y679C], for which the enrichment score is inactive: 1.02.

The target of the next test is SHP2 N-SH2 domain T52S. The description is as above. The note with it: peptide library: pTyr-Var.
LATINYPFEKG [NDUFS8_Y84_P79L]: the enrichment score is inactive: 1.15.

As for NKVQFYIPDMN [NCR1_Y84_K82Q], the enrichment score is inactive: 1.47.

Turning to RSFPSYYTSHV [NEFL_Y442], the enrichment score was inactive: 1.01.

For ILGRTHYVNHE [NEDD4_Y627_Y627H], the enrichment score is inactive: 1.48.

Take QAFSWYQHQRA [NDST1_Y714_R709Q_YF]: the enrichment score is inactive: 0.818.

On to LTSKPYAFTAQ [NDUFS1_Y236_R241Q], for which the enrichment score is inactive: 0.801.

Take SGETKYNPTEA [NBEAL2_Y2748_E2747K]: the enrichment score is inactive: 0.562.

In the case of ESVNTYLQTSP [NAT1_Y208_M205V], the enrichment score was inactive: 0.993.

With SEKVVYQRFTE [NCF1_Y41_R42Q], the enrichment score is inactive: 0.697.

Regarding LTSKPYAFTAR [NDUFS1_Y236], the enrichment score was inactive: 1.31.

For the molecule NKVKFYIPDMN [NCR1_Y84], the enrichment score is inactive: 1.42.

For the molecule PADQAYSWFQH [NDST1_Y711_R709Q_YF], the enrichment score was inactive: 0.617.

As to FQKDVYDIPPS [NEDD9_Y177_YF], the enrichment score is inactive: 0.634.

Consider ALDRPYTSKHS [NANS_Y71_E68D], for which the enrichment score was inactive: 0.533.

Consider ESMNTYLQTSP [NAT1_Y208], for which the enrichment score is inactive: 0.877.

On to QCTSAYLLQPE [NANS_Y188_P189L], for which the enrichment score was inactive: 0.569.

GGCQEYTGAPF [NAXD_Y85_YF]: the enrichment score was inactive: 0.742.

For ILGRTYYVNHE [NEDD4_Y627], the enrichment score was inactive: 1.13.

As to EMFNPCYGLFE [NEDD4L_Y679_Y679C], the enrichment score was inactive: 1.14.

The target of another test is SHP2 N-SH2 domain wild-type. The test is described as above. The conditions noted are these: peptide library: pTyr-Var.
With LATINYPFEKG [NDUFS8_Y84_P79L], the enrichment score is inactive: 1.01.

Turning to NKVQFYIPDMN [NCR1_Y84_K82Q], the enrichment score was inactive: 0.948.

On to RSFPSYYTSHV [NEFL_Y442], for which the enrichment score is inactive: 0.945.

Regarding ILGRTHYVNHE [NEDD4_Y627_Y627H], the enrichment score was inactive: 1.64.

As for QAFSWYQHQRA [NDST1_Y714_R709Q_YF], the enrichment score was inactive: 0.919.

In the case of LTSKPYAFTAQ [NDUFS1_Y236_R241Q], the enrichment score was inactive: 0.94.

With SGETKYNPTEA [NBEAL2_Y2748_E2747K], the enrichment score was inactive: 0.545.

With ESVNTYLQTSP [NAT1_Y208_M205V], the enrichment score was inactive: 1.06.

Take SEKVVYQRFTE [NCF1_Y41_R42Q]: the enrichment score was inactive: 0.786.

LTSKPYAFTAR [NDUFS1_Y236]: the enrichment score was inactive: 0.817.

For the molecule NKVKFYIPDMN [NCR1_Y84], the enrichment score was inactive: 1.29.

PADQAYSWFQH [NDST1_Y711_R709Q_YF]: the enrichment score is inactive: 0.566.

Consider FQKDVYDIPPS [NEDD9_Y177_YF], for which the enrichment score is inactive: 0.592.

With ALDRPYTSKHS [NANS_Y71_E68D], the enrichment score was inactive: 0.663.

With ESMNTYLQTSP [NAT1_Y208], the enrichment score was inactive: 1.15.

QCTSAYLLQPE [NANS_Y188_P189L]: the enrichment score is inactive: 1.29.

Turning to GGCQEYTGAPF [NAXD_Y85_YF], the enrichment score is inactive: 0.75.

ILGRTYYVNHE [NEDD4_Y627]: the enrichment score was inactive: 1.61.

EMFNPCYGLFE [NEDD4L_Y679_Y679C]: the enrichment score is inactive: 1.06.
